# The full ranking holds about 33,000 sequences; the median of “E-score (-0.5 to 0.5)” is about -0.01, and the highest 2% start at about 0.26. The list shows a part of the results.
# Target: Ste12 (UniProt P13574)
# Test: PBM E-score (8-mer binding enrichment) (E-score (-0.5 to 0.5)); higher = stronger / more preferred TF binding; most listed sequences are background and not binding sites
# Details: protein concentration: 200 nM; construct: GST-DNA-binding domain
# Method in brief: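 GST-tagged yeast TFs (full-length or DNA-binding domain) were made by PURExpress in vitro transcription/translation and applied at about 100-200 nM to universal all-10-mer Agilent arrays. The arrays were made double-stranded by primer extension, on fresh or once-stripped slides. Bound protein was detected with fluorescent anti-GST, and scans were normalised with masliner. Each ungapped eight-base word, pooled with its reverse complement, received an E-score (modified Wilcoxon-Mann-Whitney statistic) from the Universal PBM Analysis Suite.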
row,Sequence,PBM E-score
1,GCCTGTGA,-0.191
2,GTCGTCAC,0.0775
3,ACGGTGAA,0.186
4,CTAGATCC,-0.0448
5,CCTAAACC,-0.0234
6,AGCATGCT,-0.0883
7,CGACACAG,0.0279
8,CCCAACAA,0.0796
9,ATTATTAG,0.031
10,GGTCTCAA,0.0399
11,CTACGTTA,-0.0941
12,GTTGTTCA,-0.0893
13,TAGTACTA,0.0943
14,GAATTAAA,0.287
15,ACCGCCGG,0.0778
16,ATTAGGTC,0.243
17,AGCACTTA,-0.0481
18,CCACGGAG,0.00151
19,AAGCTAAG,-0.193
20,TCCAAGAA,-0.0341
21,CACCCAGG,-0.0372
22,TTCTCAAA,0.291
23,CCAGTTTC,0.234
24,CTAAACCC,0.123
25,AACTACCA,0.105

row,Sequence,PBM E-score
1,GGTCGTCA,-0.0862
2,CACCACGG,-0.252
3,AAGCTTAA,0.184
4,GCTCTGCA,-0.2
5,CACATACA,0.0306
6,ATTTTGGG,0.00909
7,CAAACTTA,0.276
8,GCTGCAAA,0.136
9,TTATGAAA,0.431
10,AGCTCGTC,-0.268
11,ACAACTTC,0.131
12,CGGCCTCA,0.0417
13,GAATTAGA,0.152
14,ACACTTTG,0.0896
15,AACAACTT,0.0876
16,GCCACGGA,-0.0989
17,CTCCCATC,0.0151
18,CAGAGACA,-0.268
19,ACACCTCT,0.0377
20,GACTATCC,-0.116
21,ATTAGTAG,0.077
22,CCGGGTAC,-0.0322
23,CTCACCCA,-0.0141
24,CAACGACC,-0.144
25,GTGGGAAA,-0.0176

row,Sequence,PBM E-score
1,AGGACCCC,-0.156
2,CGGGCCCA,-0.162
3,CCGATTCA,-0.00586
4,ATTAGACC,0.113
5,CCGCAAAA,0.25
6,AACCCGAA,0.207
7,ACCTCTTG,-0.049
8,TAGCACGA,-0.0764
9,TGCTACCA,-0.0899
10,CTACACTC,-0.0629
11,AGACCCGA,0.142
12,CCGCGTCA,-0.13
13,AGCCTAGC,-0.193
14,AACCCTCT,-0.19
15,CCGATGCC,-0.014
16,ATTTGCGG,0.148
17,TAGCGAGA,-0.0872
18,AATCGAAG,0.177
19,CACTCCGG,0.2
20,CAATCCTG,0.131
21,ATGGCTGA,0.0365
22,CGCCGGAC,-0.0359
23,CAGCCGCC,-0.0357
24,ACTAGAGC,-0.109
25,ACATAGGA,-0.0111

row,Sequence,PBM E-score
1,GCTCTCGA,-0.0609
2,GAGTTCGA,-0.038
3,AATCGGGG,0.135
4,AATATAGC,0.0583
5,AGAAGAAA,0.0885
6,GCTAGCAA,-0.298
7,CGCGGGGC,0.0924
8,AATTATCG,0.219
9,TGCGCACA,-0.027
10,TACTAGTA,0.0847
11,ATATTACC,0.17
12,GAGGTCCC,-0.0333
13,ACCAAACG,0.122
14,ACTCCAGT,0.063
15,GAGTTTAC,-0.043
16,CTACTGTC,-0.134
17,ACTAACAT,0.047
18,GCCCCTTA,-0.139
19,GCCCTAAA,-0.16
20,ACTCTTCG,-0.164
21,GCTAACTA,0.0593
22,AGTACGAG,0.00099
23,AACGGCGT,-0.0216
24,CGACTTAG,-0.0645
25,AAAGCGGG,-0.0943

row,Sequence,PBM E-score
1,AATCGAAA,0.203
2,GCAACGAC,-0.176
3,CTCATGTA,0.198
4,AGCAGATG,-0.0847
5,CCATTTCA,-0.06
6,CGCGACTC,0.00144
7,TATAGAGA,-0.0992
8,CGTGACAC,0.11
9,ATTTGAAG,0.0968
10,GACCTACC,-0.137
11,CGTATTCA,0.0428
12,ATATCGAC,0.216
13,CGATTACG,-0.133
14,ATACCAGC,-0.145
15,AGGTTGAT,-0.0776
16,GAGACCAC,-0.114
17,CGATCGGA,-0.0201
18,AGTTTGTA,0.106
19,CCGACTCA,-0.0229
20,CAAGAGTA,-0.0273
21,ACCAAGCT,-0.0594
22,CATGTTGG,0.0695
23,GGCAATCA,-0.0163
24,CACCAGGG,-0.121
25,ACGAGTAT,-0.0253

row,Sequence,PBM E-score
1,AGTTGGAC,0.0245
2,CTCCTTGA,-0.126
3,CCGTTAAC,-0.0496
4,GGGCCGCA,0.0486
5,AGTCCCAG,-0.155
6,AAAAAATT,0.197
7,CTAAGCCA,-0.178
8,CTGAGTAA,0.0681
9,ATAATAAC,0.252
10,ACTCCACG,-0.0982
11,ATACCCTG,-0.058
12,AGAATAAG,0.107
13,GCCATCTA,-0.102
14,CCTGTAGA,0.0485
15,AGATCAAA,0.156
16,AACGCGCA,-0.051
17,ACTGCTGA,-0.19
18,ACAAACCA,0.00217
19,AAATGAAG,0.257
20,CAACCGGC,-0.029
21,ATTAGCTA,0.0459
22,ATTCGCCC,-0.0527
23,ATAGCGCC,0.0012
24,CAAGCAGA,-0.0198
25,ATGTGTAC,0.0108

row,Sequence,PBM E-score
1,ATGAGCTG,-0.173
2,AGCACTAC,-0.147
3,ACCCTGCG,-0.0349
4,AAGTGCCT,-0.225
5,CCAGATAA,-0.0254
6,GGCATTTA,0.0171
7,AACCTAAC,0.00454
8,AAGGTGGG,0.0638
9,TGCCCAAA,-0.112
10,CCTGGTGC,0.0112
11,ACGCGTGG,0.0466
12,CCAGACGC,-0.122
13,CAACTAAC,0.121
14,CCTATGGA,-0.203
15,GCGGAGGA,-0.0523
16,AAACGGAA,0.25
17,AAACGTCT,0.195
18,CGTTGTCA,-0.101
19,AAGTGGAT,0.0636
20,CTCCCGGC,0.039
21,ATGCTCGG,-0.0706
22,TTAGTCAA,0.1
23,AGGTCAGA,-0.113
24,AGGTCATG,-0.00176
25,GTATCTGA,-0.0612

row,Sequence,PBM E-score
1,GATCTGTA,0.0646
2,CGGGTGGC,-0.178
3,CCGTGACA,0.11
4,AGGCTTTG,-0.133
5,ATACTTGC,0.0926
6,GCGAGTAC,-0.0768
7,CCTCTAGA,-0.134
8,CTCTGCTC,-0.0678
9,AGCTTAAT,0.0828
10,AGTCAGCA,-0.232
11,ACAGGGGA,-0.00105
12,CCTTGTCC,-0.00908
13,TACGTGGA,-0.205
14,CGTTGAAG,-0.00035
15,CGATCTGC,-0.056
16,GCGAGGTA,-0.0337
17,GTCGATGA,0.0214
18,GACTGGGC,-0.165
19,GAATACTC,-0.041
20,ATACGAGA,-0.187
21,ACGTGGGG,-0.113
22,CAACTGTC,-0.22
23,ATACTTCC,0.0476
24,CCGAGGCC,-0.0822
25,AATGCGGT,-0.0129

row,Sequence,PBM E-score
1,CCTCCAGA,0.0572
2,AGGCAGAT,0.0799
3,AGGTTCCA,-0.0812
4,ACTCGGGG,-0.0945
5,GGACTGTA,-0.226
6,ACATCGCT,-0.099
7,CGGCAAAC,0.134
8,GCTCAGGA,-0.0895
9,AAAGTGTT,0.067
10,ACGAAGTA,-0.151
11,CGTTTTAG,0.215
12,GGACCACA,0.145
13,ATACACCC,0.0615
14,CAAGTGAA,-0.0187
15,TGAACGAA,-0.0515
16,AATATGTA,0.101
17,AGGTTCGC,-0.12
18,ACGACAGG,-0.022
19,ACTCACCC,-0.0964

# Source: the supplement of paper PMC3334620
